# Experimental data: the supplement of paper PMC10126150
# Values marked as one replicate rest on one cluster of the flow cell; about a third of the high ones do not repeat.
# Tested on: ATP
# Experiment: switch fluorescence ratio, 500 uM ATP over buffer (Cy3 cluster intensity, sum of 5 cycles each) (fold (ratio)); higher = stronger signal-on switching upon ATP binding; sequences stand for … in TCGTCGGCAGCGTCAGATGTGTATAAGAGACAGTTTTTTTTTTTTTTTTTTTTTTTTT…TC
# Settings: aptamer strand: ATP DNA aptamer (quencher-CACCTGGGGGAGTATTGCGGAGGAAGG + anchor), 100 nM annealed; ATP concentration: 500 uM; one replicate
# How it was run: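 Imaging in selection buffer was followed by imaging after 15 min with 500 uM ATP at 22 °C, for Cy3-labelled switching-strand clusters annealed to 100 nM quencher-labelled ATP aptamer on a modified Illumina MiSeq flow-cell. Five of these buffer/ATP cycles ran, separated by NaOH stripping and re-annealing. The fluorescence ratio per cluster is summed target-cycle over summed buffer-cycle Cy3 intensity, averaged per switch-domain sequence; clusters outside 100-1000 RFU were removed.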
# 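Also: ATP exposure 15 min at 22 °C before imaging.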
row,Sequence,switch fluorescence ratio
1,ATTTCGTAAC,0.981
2,CGCTCTACTC,4.64
3,TCTTTATAAG,0.951
4,TTTTGTGTGT,1.03
5,CCAAGGTCGA,1.03
6,TAGAAGGTGA,1.1
7,GCATTCAGAT,0.971
8,TCAAAAAGTT,1.03
9,TTCGGCGAGC,1.05
10,CTCTCTTTT,1.02
11,GACGGGGTAC,1.16
12,GCGCATCAGA,1.01
13,TCCTCGCTGT,4.13
14,TTGTCATAGC,0.987
15,GGCGCCTGAG,1.01
16,CTAGGTGGTG,1.02
17,CTAGGTGGTA,0.938
18,CGCTCCCGAG,1.06
19,TTGCTGAATA,1.02
20,AACGGAAGGA,1.03
21,AAACGGTTAA,0.954
22,TGTGGACGGG,0.984
23,CTGTAAAAGA,0.96
24,TTGTTACGTC,1.01
25,CCAGTATTT,1.02
26,ATAGGGAGGA,0.964

row,Sequence,switch fluorescence ratio
1,CGCATGCAGT,1.05
2,AGGCTAGTAA,0.973
3,ATATGAATCC,1.03
4,CGGCTTGAGA,1.02
5,CCGCTTTGTA,1.41
6,GAGATTAGGA,0.991
7,TGGGTGTAGA,1.02
8,GCACGGGGCC,1.01
9,GTGGCCCGGC,0.978
10,TGGAGACCGA,1.01
11,TCACAGAAC,1.06
12,AAGATCTTTT,1
13,GCAGGATCGG,0.975
14,TTGCCTTAGC,0.997
15,CATCAATTGG,0.983
16,CAACTCTGAG,0.996
17,TTTTGTACTT,1.03
18,TCTGAATTA,1.02
19,ACGTACGAAC,1.32
20,ACGTACGGAG,1.38
21,TGTTTCCAGT,1.02
22,TGGGTATGAC,0.988
23,TAGTTAATAC,2.09
24,GTATCGAATT,0.976
25,ATCGTGCACG,0.947
26,ACATAGACAG,0.996

row,Sequence,switch fluorescence ratio
1,CTACCACGAA,1.06
2,CTAAGGTGT,1.23
3,AAGTAATGCA,1
4,ACACTGAAGC,1.05
5,TCCTTTACA,1.03
6,ATATCGACTT,1.01
7,GCGTGAGTGG,0.986
8,TATATCTACC,1.09
9,CGAGCGGTA,1.03
10,TCGTAGCGGA,1.49
11,GAGCGTGAGT,0.945
12,TGGGACCATC,0.959
13,AATGAGATCT,1.02
14,CCTAGCCAT,1.4
15,AAATCAAAAT,1.45
16,CGATCGGGTG,1.02
17,TCCATGCACA,1.11
18,ACATTAGTT,0.999
19,ATGGCGTTGG,1
20,CAGGTTGCCC,0.992
21,TTTGATTG,1.02
22,CGGAGGAGCG,0.997
23,TATGCTGGT,0.931
24,CGGCATTTAA,1.07
25,CTGCCGGCTT,1.01
26,CAAACTTTTT,0.975

row,Sequence,switch fluorescence ratio
1,CAAATGGCGC,1
2,AATGATGACA,1.04
3,TTTGTCTCTT,1
4,CATGTGAACC,1.01
5,GACTGAGGAT,1
6,TGGTGCCGCC,0.995
7,ACGCTTCTGC,1.05
8,TACGGGTGTC,1.12
9,ACACTCGTTA,0.98
10,CTTTGGCGCT,0.983
11,GCTAAGGATT,0.93
12,GTTGTCATTT,1.04
13,AGTGCCTGAG,1.09
14,TATTATATC,0.932
15,ATACCCAAGA,0.999
16,CAATGCCTTT,1.06
17,ACTGGGCCGC,1.07
18,TCATGGGCAT,1.05
19,ATTGAAGCGC,1.05
20,TGCTGACATG,0.978
21,GGGGATTCTA,0.963
22,AATGGCAATA,1.6
23,GCTATCCGGC,0.98
24,GGTTTCCTTC,1.03
25,TCGTTCACTT,1.01
26,CCGGGACGTT,1.03

row,Sequence,switch fluorescence ratio
1,GGTGGTTTCA,0.997
2,GACCAAATGC,1.37
3,TGAGAGCATT,1.05
4,GACTTGATTT,1.02
5,TGATGTAGTC,1.02
6,GGATCTGCGT,0.958
7,TACAGACTTG,1.03
8,TCACTTATTT,1.02
9,ATGCGTCTCA,1.02
10,CTTTCCGGGA,1.37
11,AATTTGATGA,1.03
12,CGCCCTTCTG,0.981
13,TTTTATAAAC,0.997
14,TATCAATGGA,1.02
15,TCAGGATAC,1.6
16,CTAGCTGGGA,1.01
17,CCGCTTTCGA,3.47
18,GCGTTGTAAC,1.03
19,GCCCCCCTAC,1.13
20,TTGGACTTTA,0.974
21,TAGCTAGATT,1.33
22,CATCAGCTAG,1.28
23,CTAGGAACAC,1.07
24,TTTAGAGAGG,1.02
25,CCTCGAGAAG,1.2
26,TGTAAGCGCC,0.974

row,Sequence,switch fluorescence ratio
1,TAGGGCCCTG,0.983
2,TTGGTCAATT,1.01
3,CGACTGCTGC,1.38
4,GGTGATGGCA,1.08
5,TTCACCGTAG,1.17
6,CAATCATGGG,1
7,ATAACTGTTA,0.973
8,CGCGGCGGGG,1.05
9,CTCTATAACG,1.03
10,CCGCAGGCAT,2.88
11,GATTTATTT,1.03
12,AGGTCTGACG,1.85
13,GCAGTAGCAC,0.999
14,GTATTCTTTG,1.02
15,GAATTTCGA,1.01
16,GGTAAAAGCC,0.992
17,ACCAGGTAAG,1.05
18,TACTGCAGGA,1.01
19,TAATTAGC,0.99
20,AGTGGGAACT,1.02
21,TGCAAGTCCG,1.02
22,ATTAATAAT,0.975
23,GCGGAGGGG,0.946
24,GGGGCTCCGT,1.02
25,TTAAGTATAA,1
26,GATGACAGTA,1.02

row,Sequence,switch fluorescence ratio
1,AAACTAGTAG,0.984
2,CAGAAAGATT,0.976
3,TTTTCTACTA,0.996
4,CATCAATTCC,1.1
5,AAGCAAGTAG,1.18
6,ATAATATTCC,1.22
7,ATTACCGGGC,0.899
8,ACTAGCTTTA,1.09
9,TAGGCACCCG,0.988
10,GCGAGGGT,1
11,ACGGTGGGGC,1.03
12,GGTAAAAGCA,0.995
13,AAAAGCCTCG,0.945
14,TGAGTTAGCC,1.21
15,CTAGCCTCA,0.963
16,TTGACTACAA,1.03
17,AGCATCCGCT,1.06
18,TCGACTAGCG,1.04
19,CGGACGCACC,6.35
20,CACTTTGATA,0.987
21,GCTTTGACCC,1.03
22,ATTCGCTTTC,1.32
23,GATAAGGATT,1
24,GTTGCAGCAA,1.06
25,TAGTGCGCAC,1
26,GGTATCTTCC,1.84

row,Sequence,switch fluorescence ratio
1,ATGTCGGGAG,1.02
2,GAGTTTCGGG,0.979
3,TGGGCAAAC,1.65
4,TAGAACCCTG,1.01
5,TGGCCACTTT,0.988
6,AATTGTGTT,0.977
7,TTTCAAGACG,1.07
8,GGTTTCTG,1.04
9,AGGTTGTAT,0.983
10,ATTATAACGG,0.997
11,TTGCATGGCT,1.07
12,AATCCCGGCA,1.14
13,ATGGTCCTGC,0.96
14,CGGAACTGGG,1.03
15,GGAGACCAGT,1.01
16,TTCAGACTGG,0.997
17,TCATGGCAGC,0.957
18,GCTTGTGGGT,1.03
19,GTACTTTAAA,1
